Experimental data from PubChem BioAssay AID2101 (National Center for Advancing Translational Sciences (NCATS), 2009).
About 300 (0.091%) of roughly 330,000 compounds were called active. The inconclusive results got no clear call from the source; some entries with a clear call stand among them for comparison. The call rests on the fitted dose curve; in most records, active means well fitted inhibition curve with a large enough effect; inconclusive means small, poorly fitted or top-dose-only effect, or effect the other way, or another doubt; inactive means no such curve, though single readings can be large or run the other way. No potency is given beside an inconclusive call; the fits are too rough.

Biological target: Lysosomal acid glucosylceramidase (Homo sapiens) (UniProt P04062)
Assay: qHTS Assay for Inhibitors and Activators of N370S glucocerebrosidase as a Potential Chaperone Treatment of Gaucher Disease;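 on activity change, negative = inhibition: 0% = full enzyme activity and -100% = no enzyme basal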
Conditions: N370S GC spleen homogenate, 4MU-glucoside fluorescence; activity change, negative = inhibition: at 59.4 µM (top of the series) unless noted
Potency means the concentration at half of the fitted maximal effect.

| Structure (SMILES) | activity change, negative = inhibition | Potency |
| --- | --- | --- |
| CCn1c(-c2cc(-c3ccc(OC(C)C)cc3)nc3ccccc23)n[nH]c1=S | inactive: 19.2% | – |
| O=c1[nH]c2ccc(N=Cc3c(O)ccc4cc(Br)ccc34)cc2[nH]1 | – | inconclusive [inhibitor, full curve, poor fit] |
| CC1Cc2ccccc2N1C(=O)CSc1nc(-c2ccccc2)cs1 (stereo not given) | inconclusive: 31.8% [activator] | – |
| FC(F)(F)c1ccc2c(c1)nc1n2CCCC1 | inactive: -3.95% | – |
| O=C(CN1C(=O)S/C(=C\c2cccc(Cl)c2)C1=O)NCCCn1ccnc1 | – | inconclusive [inhibitor, full curve] |
| Cc1cc(C)c2nc(-c3ccco3)cc(C(=O)O)c2c1 | – | inconclusive [activator, partial curve] |
| Fc1ccccc1Cn1nnc(-c2ccc3c(c2)OCO3)n1 | – | inconclusive [activator, single point] |
| Cc1ccc(S(=O)(=O)/N=C(/Nc2ccc([N+](=O)[O-])cc2)c2ccccc2)cc1 | – | inconclusive [inhibitor, partial curve, poor fit] |
| C=CCN1CCN(C(=O)CSc2ccccc2)CC1 | inactive: -3.27% | – |
| O=C(NC1CCCC1)c1cc2nc(-c3ccccc3)cc(-c3ccccc3)n2n1 | – | inconclusive [activator, partial curve] |
| CCOc1ccc(NC(=O)COC(=O)C2(C)CC2(Cl)Cl)c([N+](=O)[O-])c1 (stereo not given) | – | inconclusive [activator, single point] |
| CC(C)(C)c1ccc(OCC2CO2)cc1 (stereo not given) | inactive: -8.48% | – |
| Cc1cccc(NC(=O)c2sc3nc(N4CCOCC4)c4c(c3c2N)CCCC4)c1 | – | inconclusive [activator, single point] |
| CC(C)C(=O)Nc1c2c(nc3c1CCC3)CCCC2 | inactive: 2% | – |
| CCc1ccc(CN(C)C(=O)c2cc(COc3ccc(OC)cc3Cl)on2)nc1 | inactive: -12% | – |
| COC(=O)Cc1c(C)c2ccc(O)c(CN3CCCC(C)C3)c2oc1=O (stereo not given) | – | inconclusive [activator, partial curve] |
| Cc1cccc(C)c1NC(=O)CSc1nnc(-c2ccoc2C)n1CCc1ccccc1 | – | inconclusive [inhibitor, partial curve, poor fit] |
| O=C1Cc2ccccc2C(=O)N1OCc1ccc(Cl)cc1Cl | inactive: -5.78% | – |
| COC(c1ccccc1)c1nc2ccccc2[nH]c1=O (stereo not given) | – | inconclusive [activator, single point] |
| Cc1c(NC(=O)CCCOc2ccccc2)cccc1[N+](=O)[O-] | – | inconclusive [inhibitor, full curve, poor fit] |
| O=c1cc(-c2cccc(-c3ccc(C(F)(F)F)cc3)c2)c2cc3c(cc2o1)OCO3 | – | inconclusive [activator, single point] |
| Cc1ccc(-c2c(C(=O)N/N=C/c3sccc3C)nnn2-c2nonc2N)cc1 | – | inconclusive [inhibitor, partial curve, poor fit] |
| Clc1cccc(-c2cc3nc4c(c(NCc5ccco5)n3n2)CCCC4)c1 | – | inconclusive [inhibitor, single point] |

| Structure (SMILES) | activity change, negative = inhibition | Potency |
| --- | --- | --- |
| O=C1C(=O)N(CCCN2CCOCC2)C(c2ccc([N+](=O)[O-])cc2)/C1=C(\O)c1ccc2c(c1)OCCO2 (stereo not given) | – | inconclusive [inhibitor, single point] |
| CCNC(=S)N/N=C/c1cn(Cc2ccc(F)cc2)c2ccccc12 | – | inconclusive [inhibitor, single point] |
| COc1cccc(Cn2c(=O)c(C)nc3cnc(OCc4ccccc4)nc32)c1 | – | inconclusive [activator, single point] |
| O=C(NC1CCCC1)c1cc2c(ccc3ccccc32)o1 | – | inconclusive [activator, partial curve, poor fit] |
| CC(C)(CC(=O)O)CC(=O)N1CCCN(c2nccc(C(F)(F)F)n2)CC1 | inactive: 6.58% | – |
| CCOC(=O)c1c(NC(=O)C(C)S(=O)(=O)c2cn(CC)c3ccccc23)sc2c1CCCC2 (stereo not given) | – | inconclusive [activator, partial curve] |
| CCOC(=O)C12CC1/C(=N\O)c1ccccc1O2 (stereo not given) | inactive: 2.72% | – |
| COCCn1c(=O)c(-c2cccs2)nc2cnc(Oc3cccc(Cl)c3)nc21 | – | inconclusive [activator, partial curve] |
| CC(CC12CC3CC(CC(C3)C1)C2)NCc1ccccc1O (stereo not given) | – | inconclusive [inhibitor, partial curve] |
| O=c1[nH]c(=O)c2nc(-c3ccc(Cl)cc3)cnc2[nH]1 | – | inconclusive [activator, partial curve] |
| CCC(=O)Nc1sc2c(c1C(N)=O)CCN(Cc1ccccc1)C2 | – | inconclusive [activator, partial curve] |
| CCOC(=O)CC(NC(=O)c1cc2cccc(OC)c2oc1=O)c1ccc(OC)cc1 (stereo not given) | inactive: -2.37% | – |
| O=C(Nc1ccccc1)c1ccc2nc(-c3ccco3)c(-c3ccco3)nc2c1 | inactive: 15.4% | – |
| CCOC(=O)/C(C#N)=C\c1ccc(N2CCN(C/C=C/c3ccccc3)CC2)cc1 | – | active: 15.8 µM |
| CC1CCCC(NC(=O)COC(=O)Cc2ccsc2)C1C (stereo not given) | – | inconclusive [inhibitor, single point] |
| CC1CCc2c(C(=O)NCC3CCCO3)csc2C1 (stereo not given) | – | inconclusive [inhibitor, single point] |
| NC(=O)COc1ncnc2scc(-c3ccc(F)cc3)c12 | – | inconclusive [inhibitor, single point] |
| Cc1cc(NC(=O)C(Cl)c2ccccc2)no1 (stereo not given) | inactive: 2.16% | – |
| CC(C)CCn1cnc2c(oc3nc4c(cc32)CCCC4)c1=O | – | inconclusive [activator, partial curve] |
| COc1cc2oc(-c3ccc(O)cc3)cc(=O)c2c(O)c1OC | – | active: 10 µM |
| O=c1c(C(c2ccc(O)cc2)c2c(O)nc3n(c2=O)CCCS3)c(O)nc2n1CCCS2 | inactive: 3.19% | – |
| Cc1ccc(SCCC(=O)Nc2nccs2)cc1 | – | inconclusive [inhibitor, single point] |
